Some of the results follow.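 The calls were made as follows: active = more than 2 SD below the DMSO mean: under 0.85 at 10 µM or 0.885 at 1 µM; inactive = the rest.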 Many values rest on one well or one pass, so single values are uncertain.
System: RPE1
Experiment: nucleolar normality score relative to DMSO (fraction of DMSO control); RPE1 is a non-cancer human cell line; higher = more normal nucleoli (less nucleolar stress)
Settings: 24 h
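Also: fixed cells immunolabelled for nucleolin and UBF, 40 image fields per well in 384-well plates, per-cell score = nucleolin nucleolar/nucleoplasm intensity ratio divided by the matching UBF ratio.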

Row | SMILES | nucleolar normality score (1 µM) | nucleolar normality score (10 µM)
1 | COc1ccc2c(c1)/C(=C/c1cnc[nH]1)C(=O)N2 | inactive: 0.907 | inactive: 1.02
2 | C[C@H]1C(=O)O[C@@H]2CCN3CC=C(COC(=O)[C@](C)(O)[C@]1(C)O)[C@H]23 [Monocrotaline] | inactive: 1 | inactive: 0.92
3 | CC(=O)OC12COC1CC(O)C1(C)C(=O)C(O)C3=C(C)C(O)CC(O)(C(OC(=O)c4ccccc4)C21)C3(C)C (stereo not given) [10-Deacetylbaccatin-III] | inactive: 0.994 | inactive: 0.886
4 | O=P1(NCCCl)OCCCN1CCCl (stereo not given) [Ifosfamide] | inactive: 0.947 | inactive: 1.02
5 | O=C1CCC[C@@H]2[C@H]3CCCN4CCC[C@@H](CN12)[C@@H]34 [(+)-Matrine] | inactive: 0.977 | inactive: 1.03
6 | CN1C(=O)[C@@]23C[C@]4([C@]56C[C@@]78SS[C@@](CO)(C(=O)N7[C@H]5Nc5ccccc56)N(C)C8=O)c5ccccc5N[C@@H]4N2C(=O)[C@]1(CO)SS3 [Chaetocin] | active: 0.626 | active: 0.292
7 | Cc1cc(SCc2sc(-c3ccc(C(F)(F)F)c(F)c3)nc2C)ccc1OCC(=O)O | inactive: 1 | inactive: 1.09
8 | CCC1(c2ccc(N)cc2)CCC(=O)NC1=O (stereo not given) [Aminoglutethimide] | inactive: 1.04 | inactive: 1.06
9 | O=C1CCC[C@@H]2[C@H]3CCCN4CCC[C@H](CN12)[C@@H]34 [Sophoridine] | inactive: 0.987 | active: 0.833
10 | O=c1[nH]c2ccccc2n1C1CCN(Cc2ccc(-c3[nH]c4cc5ncnc5cc4nc3-c3ccccc3)cc2)CC1 | inactive: 1.09 | inactive: 1.02
11 | Cc1c([C@H](C)[C@@H]2NC[C@@H](C)C[C@H]2O)ccc2c1C[C@H]1[C@H]2CC=C2C[C@@H](O)CC[C@@]21C [Veratramine] | inactive: 1.01 | inactive: 0.89
12 | CC(=O)Nc1ccc(OC[C@](C)(O)C(=O)Nc2ccc([N+](=O)[O-])c(C(F)(F)F)c2)cc1 [Andarine] | inactive: 0.936 | inactive: 1.02
13 | C[C@](O)(COc1ccc(C#N)cc1)C(=O)Nc1ccc(C#N)c(C(F)(F)F)c1 [Ostarine (GTx-024, MK-2866 )] | inactive: 0.977 | inactive: 1.07
14 | C=C(C)[C@H]1Cc2c(ccc3c2O[C@@H]2COc4cc(OC)c(OC)cc4[C@@H]2C3=O)O1 [Rotenone (Barbasco)] | inactive: 0.99 | inactive: 0.984
15 | O=C(O)CNC(=O)c1c(O)c2ccccc2n(Cc2ccccc2)c1=O | inactive: 1.09 | inactive: 1.1
